Reference: the supplement of paper PMC4967469

Tests used:
Assay in all cases: Viability of human cancer cell lines after 72 h of drug (GDSC screen)
[1] = compound: CO[C@@]12[C@H](COC(N)=O)C3=C(C(=O)C(C)=C(N)C3=O)N1C[C@@H]1N[C@@H]12 [Mitomycin C]; settings: top dose 16 µM
Procedure: (§1)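 Human cancer cell lines in 384-well plates, medium with 10% serum, drug for 72 h over a 256-fold dose range (nine 2-fold or five 4-fold steps up to the top dose). Adherent lines were fixed and stained with the nucleic acid dye Syto60, suspension lines read with resazurin; signal relative to control wells, capped at 0 and 100%. One two-parameter sigmoid per drug and line, fitted in a mixed model over all curves with the slope shared within a line.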

[2] = compound: O=C(O)CNC(=O)c1c(O)c2ccccc2n(Cc2ccccc2)c1=O [IOX2]; settings: top dose 0.1 µM; top dose inferred
Procedure: as §1

[3] = compound: COc1cc(Nc2c(C#N)cnc3cc(OCCCN4CCN(C)CC4)c(OC)cc23)c(Cl)cc1Cl [Bosutinib]; settings: top dose 2 µM
Procedure: as §1

[4] = compound: CO[C@@H]1[C@H](N(C)C(=O)c2ccccc2)C[C@H]2O[C@]1(C)n1c3ccccc3c3c4c(c5c6ccccc6n2c5c31)C(=O)NC4 [Midostaurin]; settings: top dose 0.512 µM; top dose inferred
Procedure: as §1

[5] = compound: Cc1ccc(C(=O)Nc2cccc(C(F)(F)F)c2)cc1Nc1nc(-c2cccnc2)nc2c1cnn2C [NVP-BHG712]; settings: top dose 10.24 µM; top dose inferred
Procedure: as §1

Cell Line | AUC [1] | IC50 [1] | AUC [2] | IC50 [2] | AUC [3] | IC50 [3] | AUC [4] | IC50 [4] | AUC [5] | IC50 [5]
SK-MEL-24 (melanoma, adherent) | 0.54 | 1310 nM | 0.976 | > 100 nM | 0.95 | > 2000 nM | 0.977 | > 512 nM | 0.604 | 1310 nM
SK-MEL-30 (melanoma, adherent) | 0.378 | 452 nM | 0.982 | > 100 nM | 0.985 | > 2000 nM | 0.851 | 426 nM | 0.595 | 1180 nM
SK-MES-1 (lung squamous cell carcinoma, adherent) | 0.178 | 96.1 nM | 0.978 | > 100 nM | 0.879 | > 2000 nM | 0.819 | 325 nM | 0.914 | > 10200 nM
SK-N-AS (neuroblastoma, adherent) | 0.545 | 1350 nM | 0.967 | > 100 nM | 0.975 | > 2000 nM | 0.981 | > 512 nM | 0.984 | > 10200 nM
SK-N-SH (neuroblastoma, adherent) | 0.108 | < 62.5 nM | 0.982 | > 100 nM | 0.987 | > 2000 nM | 0.759 | 178 nM | 0.967 | > 10200 nM
SKG-IIIa (cervix, adherent) | 0.379 | 415 nM | 0.98 | > 100 nM | 0.968 | > 2000 nM | 0.952 | > 512 nM | 0.983 | > 10200 nM
SKN (uterus, adherent) | 0.57 | 1620 nM | 0.969 | > 100 nM | 0.884 | > 2000 nM | 0.735 | 176 nM | 0.982 | > 10200 nM
SKN-3 (head and neck, adherent) | 0.815 | 10800 nM | 0.98 | > 100 nM | 0.749 | 752 nM | 0.981 | > 512 nM | 0.933 | > 10200 nM
SNG-M (endometrium, adherent) | 0.223 | 159 nM | 0.962 | > 100 nM | 0.887 | > 2000 nM | 0.891 | > 512 nM | 0.776 | 4000 nM
SNU-387 (liver, adherent) | 0.623 | 2300 nM | 0.954 | > 100 nM | 0.904 | > 2000 nM | 0.7 | 127 nM | 0.836 | 8140 nM
SNU-423 (liver, adherent) | 0.564 | 1540 nM | 0.981 | > 100 nM | 0.98 | > 2000 nM | 0.768 | 224 nM | 0.939 | > 10200 nM
SNU-449 (liver, adherent) | 0.685 | 3480 nM | 0.983 | > 100 nM | 0.952 | > 2000 nM | 0.712 | 135 nM | 0.911 | > 10200 nM
SNU-C2B (large intestine, adherent) | 0.354 | 346 nM | 0.978 | > 100 nM | 0.929 | > 2000 nM | 0.98 | > 512 nM | 0.881 | > 10200 nM

Lines with a small IC50 respond at low doses; a fit beyond the top or the lowest dose is shown as a bound at that dose. AUC, from the same fit, is the share of area under the viability curve across the 256-fold dose range: 1 means no effect, lower means more sensitive. For some of these results: Where the top dose is marked as inferred, it was derived from the fitted curves, not read from the paper.
